Assay results as given in publication doi:10.1101/2023.12.13.571598 (bioRxiv, 2023).

B1: P301S 4R tauRD ([…]) (domain or fragment)
chain: not shown
B2: WT 4R tauRD ([…]) (domain or fragment)
chain: not shown
B3: P301S tauRD_QK (domain or fragment)
chain: not shown
B4: P301S tauRD_EL_QK (domain or fragment)
chain: not shown

How the values were obtained:
[1] = biological target: the molecule itself; assay: ThT fluorescence aggregation assay
[2] = biological target: the molecule itself; assay: ThT fluorescence aggregation assay + other: negative-stain TEM

Row | Protein | binding result [1] | binding result [2]
1 | B1 | binds | 
2 | B2 |  | binds
3 | B3 |  | binds
4 | B4 |  | binds
